Here are results for 30 compounds from PubChem BioAssay AID1745853 (National Center for Advancing Translational Sciences (NCATS), 2022).

What all share (assay): Primary Screen for Target Class Profiling of Small Molecule Inhibitors of Methyltransferases
Test [1] deals with Glycine N-methyltransferase (Homo sapiens) (UniProt Q14749). The conditions noted are these: purified enzyme, MTase-Glo SAH luminescence; measured here: GNMT inhibition; at 40 µM; stronger effect = lower value. The method in brief:
(§1)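 Each enzyme was reacted with SAM and its substrate, with compounds tested once at 40 uM; SAH formed was read by MTase-Glo luminescence.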

Test [2] has as its target Guanidinoacetate N-methyltransferase (Homo sapiens) (UniProt Q14353). The conditions noted are these: purified enzyme, MTase-Glo SAH luminescence; measured here: GAMT inhibition; at 40 µM; stronger effect = lower value. The method in brief:
as §1

Test [3] has as its target Histamine N-methyltransferase (Homo sapiens) (UniProt P50135). The conditions noted are these: purified enzyme, MTase-Glo SAH luminescence; measured here: HNMT inhibition; at 40 µM; stronger effect = lower value. In a few lines: as §1
Test [4] addresses Nicotinamide N-methyltransferase (Homo sapiens) (UniProt P40261). Particulars: purified enzyme, MTase-Glo SAH luminescence; measured here: NNMT inhibition; at 40 µM; stronger effect = lower value. The method in brief:
as §1

The target in test [5] is Phenylethanolamine N-methyltransferase (Homo sapiens) (UniProt P11086). Particulars: purified enzyme, MTase-Glo SAH luminescence; measured here: PNMT inhibition; at 40 µM; stronger effect = lower value. In a few lines: as §1

The other results are listed elsewhere or left out. Shown are side measurements of this screen, not its main read-out; they come without a call.
On the % scale 0 is the no-effect control and ±100 the full control effect.

For the compound `Cc1ccccc1CCNC(=O)CCn1ccc2cc(S(=O)(=O)N3CCCCC3)ccc21`, the activity change, negative = inhibition is -9.6% in test [1]; -3.02% in test [2]; 0.163% in test [3]; -14.1% in test [4]; -6.79% in test [5].
As for `CN(C)CCN(C)[C@H]1[C@@H]2OC[C@@H](O2)[C@@H](NC(=O)Nc2cccc(C#N)c2)[C@@H]1O`, the activity change, negative = inhibition is -1.81% in test [1]; 0.193% in test [2]; 0.158% in test [3]; 1.38% in test [4]; 17.1% in test [5].
Consider `CCc1nnc([C@@H]2CC(F)(F)CN2C(=O)c2ocnc2C)o1`, for which the activity change, negative = inhibition was -2.83% in test [1]; -0.581% in test [2]; -0.936% in test [3]; -7.05% in test [4]; 4.91% in test [5].
The matching figures for `Cc1ccc(CN2C(=O)c3ccc(-c4ccccc4)n3CC2(C)C(=O)NC2CCCCCC2)cc1` (stereo not drawn): 7.26%, 0%, 3.49%, 4.39% and 2.85%.
Consider `CCCCCOc1ccc(C2SC(=O)NC2=O)cc1OCC` (stereo not drawn), for which the activity change, negative = inhibition in test [1] is -5.78%; in test [2], -9.78%; in test [3], 8.82%; in test [4] it was -21.1%; in test [5] it was -3.03%.
As for `Cc1ccc(-c2c(-c3nn(C)c4ncnc(N5CCC(N6CCCCC6)C5)c34)cnn2C)cc1` (stereo not drawn), the activity change, negative = inhibition in test [1] was -2.66%; in test [2], 5.76%; in test [3], 4.57%; in test [4], -21.8%; in test [5], 0.524%.
For `COc1ccc(N2C(=O)c3ccc(-c4ccco4)n3CC2(C)C(=O)NC2CCCC2)cc1` (stereo not drawn), the activity change, negative = inhibition in test [1] was 3.99%; in test [2] it was 0.133%; in test [3] it was 6.57%; in test [4], 8.8%; in test [5], -0.251%.
For the compound `c1nc(NC2CCCCCC2)c2cc(CNC[C@H]3CCCO3)sc2n1`, the activity change, negative = inhibition in test [1] is -12.6%; in test [2], -7.34%; in test [3], -25%; in test [4], -28.1%; in test [5], -20.5%.
As to `Cc1nc2ccc(CN(C)c3ccc(C(=O)N[C@@H](CCC(=O)O)C(=O)O)s3)cc2c(=O)[nH]1`, the activity change, negative = inhibition in test [2] was 7.82%; in test [4], -7.05%; in test [5], 5.16%.
With `CCOC(=O)c1cc2n(n1)CC(C)(C(=O)NCCC(C)C)N(c1ccc(OC)cc1)C2=O` (stereo not drawn), the activity change, negative = inhibition in test [1] is -0.912%; in test [2], 2.4%; in test [3], 1.61%; in test [4], 7.83%; in test [5], -3.66%.
As to `Cc1cc(C)n(CC(=O)N2CCC3(CC2)CC(CN2CCOCC2)N(C)C3)n1` (stereo not drawn), the activity change, negative = inhibition in test [1] was -2.55%; in test [2] it was -8.5%; in test [3] it was 0.666%; in test [4] it was -6.53%; in test [5] it was -1.19%.
The matching figures for `O=C(CCc1ccccc1)NCC1CCCCC(=O)N1` (stereo not drawn): -1.2%, 0.433%, 0.642%, 1.21% and 3.01%.
The matching figures for `COc1ccc(-c2nnc3n(Cc4ccc(C)cc4)c(=O)c4ccccc4n23)cc1`: -10.6%, 4.04%, 1.97%, 1.22% and -2.35%.
For `Cc1cccc(Cn2nc3n(CC(C)C)c(=O)c4ccc(C(=O)NC5CCCCC5)cc4n3c2=O)c1`, the activity change, negative = inhibition was determined as 5.54% in test [1]; 1.82% in test [2]; 6.7% in test [3]; 7.63% in test [4]; 4.28% in test [5].
Consider `Cc1ccc(N2C(=O)c3cc4sccc4n3CC2(C)C(=O)NC2CCCC(C)C2C)c(C)c1` (stereo not drawn), for which the activity change, negative = inhibition is -6.19% in test [1]; 5% in test [2]; -2.65% in test [3]; 0.711% in test [4]; -1.56% in test [5].
Take `CC(C)Cn1c(=O)c2ccc(C(=O)NC(C)C)cc2n2c(=O)[nH]nc12`: the activity change, negative = inhibition is -4.33% in test [1]; 0% in test [2]; 6.02% in test [3]; 7.37% in test [4]; -6.02% in test [5].
For the compound `O=C(Cn1ccc2cc(S(=O)(=O)N3CCCCC3)ccc21)N1CCOCC1`, the activity change, negative = inhibition in test [1] is -3.27%; in test [2], -2.54%; in test [3], -0.894%; in test [4], -3.25%; in test [5], -3.06%.
For the compound `CC(NC(=O)c1cc2n(n1)CC(C)(C(=O)NC1CCCC1)N(C)C2=O)c1ccc2c(c1)OCCO2` (stereo not drawn), the activity change, negative = inhibition in test [1] was -3.15%; in test [2], -1.88%; in test [3], 0.231%; in test [4], -4.5%; in test [5] it was -1.88%.
As for `COC1CC(OC2CCC3(C)C(=CCC4C3C(OC(C)=O)C(OC(=O)/C=C/c3ccccc3)C3(C)C(C(C)O)CCC43O)C2)OC(C)C1OC1CC(OC)C(OC2OC(C)C(OC3OC(CO)C(O)C(O)C3O)C(OC)C2O)C(C)O1` (stereo not drawn), the activity change, negative = inhibition in test [1] is 1.11%; in test [2], 11.6%; in test [3], 3.06%; in test [4] it was 1.89%; in test [5], 8.05%.
For the compound `CC(=O)N1CCN(c2cc(-c3noc([C@@H]4CCCN4Cc4ccccc4)n3)ccn2)CC1`, the activity change, negative = inhibition was -11% in test [1]; -8.33% in test [2]; -12.4% in test [3]; -15.2% in test [4]; -9.42% in test [5].
Consider `Cc1ccc(C(=O)N2CCCCCNC(=O)[C@@H]3CCC[C@@H]32)s1`, for which the activity change, negative = inhibition in test [1] is 1.42%; in test [2] it was 2.28%; in test [3] it was 0.429%; in test [4], 0.816%; in test [5], -1.03%.
For the compound `CCN1CCCCC12Cc1ccccc1CN(S(=O)(=O)c1ccccc1)C2` (stereo not drawn), the activity change, negative = inhibition is -4.54% in test [1]; -7.57% in test [2]; -7.07% in test [3]; -9.72% in test [4]; -6.83% in test [5].
The matching figures for `CCOC(=O)c1ccnc(CNCC(=O)N(CC)CCN(C)C)c1`: 4.96%, 4.4%, 5.58%, -5.56% and 6.5%.
For `O=S(=O)(c1cccc(-c2nc(-c3ccccc3)no2)c1)N1CCN(c2ccccc2F)CC1`, the activity change, negative = inhibition in test [1] is -1.51%; in test [2], 0.525%; in test [3] it was -5.54%; in test [4], -4.78%; in test [5] it was -5.72%.
The like results for `Cc1cc(N2CCN(C(=O)Oc3ccc(-c4ccccc4)cn3)CC2)c2ccccc2n1` were, in that order, -48.3%, -0.487%, -11.1%, -25.2% and -7.5%.
For `CSc1ccc(CCNC(=O)CCCn2ccc3cc(S(=O)(=O)N4CCCC4)ccc32)cc1`, the activity change, negative = inhibition was -1.21% in test [1]; 1.49% in test [2]; 0.703% in test [3]; -1.03% in test [4]; 0.878% in test [5].
Turning to `Cc1ccccc1CN1C(=O)c2cc3occc3n2CC1(C)C(=O)NC1CCCC(C)C1C` (stereo not drawn), the activity change, negative = inhibition in test [1] was -2.74%; in test [2], 2.95%; in test [3], 6.74%; in test [4], 1.21%; in test [5], -0.27%.
Take `NOCC(=O)O`: the activity change, negative = inhibition is 7.87% in test [1]; 5.42% in test [2]; 14.1% in test [3]; -4.39% in test [4]; 2.58% in test [5].
With `CCCn1c(=O)c2ccccc2n2c(SCc3ccc(C)cc3)nnc12`, the activity change, negative = inhibition in test [1] is -8.97%; in test [2], 1.71%; in test [3], 9.34%; in test [4], -12.2%; in test [5], 5.58%.
For the compound `COc1cc2ncnc(Nc3ccc(O)cc3)c2cc1OC`, the activity change, negative = inhibition in test [1] was -7.46%; in test [2] it was 3.63%; in test [3], -6.4%; in test [4], -16.4%; in test [5], -6.17%.
